The values below come from the RNAGym collection of RNA variant scans (doi:10.7554/elife.90254).

Read counts are not given, so values of variants with three or more changes are uncertain.

The labels stand for the following.
B1: OR4K15 (parent)
chain: GUUAACGGUCAUAGGCCAUGGAAACUAGGAGCACCAUUUCGCUGCCAGUGAAGAAAUGAACAAAGAAAAUCUGGGCCAGGCAGGCAUCAAAAGAAAUAGUCUUGCGCUCAACCAGAAAGUCUGUAAUCAUUUUAAGGGUA

The data set covers variants of B1. Nature of the data set: self-cleavage, relative activity (ratio to wild type); higher = more cleavage; in vitro, sequencing; the parent is a self-cleaving ribozyme.
Turning to A5U A24C A118U, the self-cleavage turned out to be 0.82. For U9A A95G U102C, the self-cleavage came out at 2.54. With A5G U72C C105U A135G the figure was 0.07; with A5U A55C U57A A60C A78U, 0.39. In the case of A5G U26A A96G U133C it was 0.84. On to G8U A33G A114C, for which the self-cleavage turned out to be 0.02.

For the variant U9A A62G A82U C107U, the self-cleavage stood at 0.03. In the case of U9A A63G U122A it was 0.78. With A5G U43A A59G the figure was 0.61. With C6U A62U U100C the figure was 1.33. Regarding U9A A98G A114G A117G, the self-cleavage worked out at 0.14. In the case of A5G U49C A55U A60G it was 1.09. With A5U A56G A111G U130C the figure was 0.04; with C6U U43A U72A A95G A116G U130A, 0.08. In the case of G7U A62U A86G it was 2.05; in that of G7U U127A U130C, 0.84. As to G7A U9C U19C A23G, the self-cleavage came to 2.06.

Turning to C6U A111G A129G, the self-cleavage was found to be 0.02. In the case of A5U A23C A59U it was 1.23. In the case of A5G U9C C32U it was 0.92; in that of G7A A95G U103C U127C A135G, 0.92. In the case of G8A U38C A54G U108C it was 0.02; in that of G7U A52G A54G A78G U87C, 0.14.

With U9A A66G A89G A114G, the self-cleavage is 0.26. For A5G U39C A55G A62U G104A, the self-cleavage stood at 0.13.

With A5G C17U A59G, the self-cleavage was 1.2. With C6A A24G A66U A82G, the self-cleavage worked out at 0. In the case of A5U A66G U100A it was 0.48; in that of C6U A18U U122C, 0.67. With C6U A23G U38C A66G the figure was 0.93; with G7A A22G U26A G41U, 0.61; with G8U C61U A68C A110G, 0.31.

Regarding C6U A56G A63G A69G, the self-cleavage amounted to 1.27. Regarding G8A U49C A69G, the self-cleavage came to 1.84. In the case of U9A A23G A125G it was 0.42; in that of A5G U19C A60G A69G A129U, 0.34. With U9A A23G U37C the figure was 1.44. With A5G U57A U120C the figure was 0.79; with A5U A60G A92G A111G, 0.1. Regarding A5U C88U A117G, the self-cleavage was 0.91. With G7A A92G A116G the figure was 0.34; with A5G U72C A90G, 0.56; with U9A A55U A56G A60G A89G, 0.58. With G7A A22G A64G A110G U127G U132C the figure was 0.08. Consider A5G C42U A60C, for which the self-cleavage was found to be 1.07.

On to A5U U19A U70C U130C, for which the self-cleavage worked out at 0.62.

On to A5G U38A A60G A78G A82U, for which the self-cleavage worked out at 0.2. As to A5G G41A A114U, the self-cleavage is 0.06. In the case of G8U A92G U131C it was 2.5; in that of A5U A55G G106A U108A, 0.07; in that of U9A A90G U124A A129U, 0.02. With G8A U108A A110G the figure was 0.08; with G8C A55G U132C, 1.99; with G7A U108C U122C A126G A129U, 0.01. On to G8A A36G U49G A126G, for which the self-cleavage came out at 1.32. With U9A G29A A60G U72A the figure was 0.18; with U9A A66C C85U U87C A95G A117G, 0.81; with A5G C17U A78G A91G U127A, 0.14. In the case of U9A A27G A90G A94G U97C it was 0.97; in that of U9A A67G A95G A110U, 1.68; in that of A5G C112U U139A, 0.05. With A5G U38C U70C A82G the figure was 0.61; with A5G U49C A95G, 0.99; with U9A A24G C61U A92G, 1.12. Consider G7A A13U A33U A68G A95G, for which the self-cleavage worked out at 1.78.

Take G7A A18U U19C A30G A140G: the self-cleavage turned out to be 1.13. With A5U U100C A114G the figure was 1.24; with G8C A13G C34U U37C A68G U70C A94G U103C, 0.96.

For the variant A5G U130C U131C, the self-cleavage came to 0.58. Turning to G7A A86G A135U, the self-cleavage is 1.59.

Regarding U9A A94G A116G, the self-cleavage came out at 0.23. With U9A A51G A86G the figure was 1.11.

Turning to A5G U9C G14A U39C G41A A56G U87G A116G, the self-cleavage was 0.11. With A5G U103C U124A the figure was 0.47. With G7A A91G A94G U102A the figure was 0.57; with A5G U9C A27G A30U A56G A68G G74A, 0.3; with C6A A64G A92G U122A, 0.57. With A5G C40A A125U the figure was 1.36. Regarding U9A A30G A36G G84C, the self-cleavage is 0.58. As for A5G U26A A116G, the self-cleavage was found to be 1.11. With A5G U9A A13C the figure was 0.76.

For C6U G48A U100C U132G, the self-cleavage was found to be 1.95. With A5U U19C A24G U38C C61A A126U the figure was 0.92; with G8C A63U G80A A90G A94U, 0.59. In the case of G8U C16U U87C A91G U102A it was 0.73.

On to A5G U57C A89G A140U, for which the self-cleavage was found to be 1.56. In the case of A5G U26C A66G G136A it was 2.25; in that of G7U U97G U127C, 0.84; in that of C6A A60G U127C, 0.58. In the case of A5G U57G U103C G104A U108C A126G A134G, the self-cleavage was determined as 0. Consider U9A G48A A117G, for which the self-cleavage was determined as 1.32. As for C6U A89G A116G, the self-cleavage was 0.2. With A5G G7A A95G the figure was 1.42. In the case of A5U C6U A68G U100C A125G it was 0.28; in that of A5G G44A A86U, 1.81.

With G7A A30U U38C, the self-cleavage was determined as 1.43. With A5G U49G A55G A63G U139C the figure was 0.46. With A5G G50A C112U the figure was 0.08.

With U9A A36U A78G U139C, the self-cleavage stood at 0.17. With A5G U37C G50A A94G A111G the figure was 0.08; with A5G U9C A22G A47G A94C U130C, 0.74. In the case of C6U A56G A89C it was 0.96. In the case of A5U A60U A89G it was 1.67; in that of G7A A67G A92G A94G A98G U120C, 0.17; in that of C6U A62U U87C, 1.48. Consider G7A G53U A60G A95G U130C, for which the self-cleavage was 0.75. With A5G U19C A54G U127C the figure was 0.6.

Consider C6U A67G A91G U108A, for which the self-cleavage is 0.03. With A5G U38C U100C A126C the figure was 0.96; with A5G U43A A55C C81U U103A U108C A126G A135U, 0. With G8A U108C A118G A135U the figure was 0; with A5G U9C A30G A67G U72C A91U, 0.38. For the variant A5G U102C U120C, the self-cleavage amounted to 1.3. As to A5U A33G A63G, the self-cleavage stood at 1.09. In the case of G8C U43C A60G it was 1.56. With C6U U57C A114G the figure was 1.37. With U9A C32U U49C U72A A86G the figure was 0.14; with A5G G7A G137U, 0.53. For the variant G8A A78G A114G G137A, the self-cleavage came to 0.13.

Turning to A5G U9C A11U A96G U102C, the self-cleavage is 1.37.

As for A5U A23U U49C A56G A62U, the self-cleavage amounted to 0.9.

C6U A30G A91G: the self-cleavage was found to be 0.75. In the case of A5G U38C A95G U132C it was 1.16; in that of C6U A96U A129G, 1. With G7U A18U A27U U122G the figure was 1.6; with G7U U26C U43A U132C, 1.9; with A5U A51U A69G, 1.05. With A5U U37C U39C A54G U87C the figure was 1.52; with A5U C88U A111G, 0.08. Turning to G7U A30G A91G, the self-cleavage turned out to be 1.49. In the case of C6U A22G U57A A129G it was 0.53; in that of U9A A47G A54U A82C A110U, 0.1; in that of G7A U87C A118G, 1.29.

For G7U A23G A54G, the self-cleavage came to 1.63.

With C6G A86G U108C, the self-cleavage was 0.14. With G7A A24C A78U A125G A129G the figure was 0.04; with G7A U26A A47C A82G A118G, 0.11. With U9A A59G U100C U103C the figure was 2.23; with A5G U39C A56G A62G U100C, 1.56.

A5G U37C A59G: the self-cleavage amounted to 1.52. In the case of G8A A55G U131C A140G it was 1.76; in that of U9A A62G A126G, 1.41. For A5G U38C A78G, the self-cleavage turned out to be 1.34.

A5G U70C A92G U133C: the self-cleavage was determined as 0.55. In the case of G8C U43C A54G A66G it was 1.67. With A5U A82G U102C the figure was 1.03; with U9A A22G A23G U127A, 1.5; with G8A A24G U49C A63G A135G A140G, 1.74.

Turning to G7A U102C U108C, the self-cleavage is 0.01. With U9A G79A A95G the figure was 0.06. In the case of A5G U49C A63G U97C U108A A110G it was 0.1. In the case of U9A A92U U97C U100C U122C U132C it was 2.04. For G8A A22G A118G, the self-cleavage was 0.92. Take C6U A24G G44A A55G: the self-cleavage was found to be 0.79.

As for C6U A33U U49G A52G A68G, the self-cleavage was found to be 0.58.

With G8A A63G A90G U120C A129G U132G, the self-cleavage worked out at 0.13.

On to A5U A11G A18G U49C U102C, for which the self-cleavage stood at 1.36.

Turning to C6U U12A U131C, the self-cleavage amounted to 0.86. With A5G C107U U127A, the self-cleavage came out at 0.15. As to U9A A13G A23G A24G, the self-cleavage was determined as 1.15. For the variant A5U U9C U19C A59G, the self-cleavage came out at 0.89.

Turning to A5G C77U A116G, the self-cleavage stood at 0.9. In the case of G7U U9A A69G it was 0.89.

Take U9A A47U A117G: the self-cleavage worked out at 0.59. With A5G U49C A60G A89G A90G A91G A111G the figure was 0.13; with U9A A63G A66G U87C U102C A111G, 0.05. In the case of G7A A22G A23G A59G G74C A95C it was 0.15.
